Paper PMC4336329 (PLoS ONE, 2015)
Among all 310,000 compounds or so, about 2,200 (0.71%) showed an effect of 50% or more. The effect is printed as a negative number. The list shows a part of the results.

What follows are molecules tested against human ether-à-go-go-related gene (hERG) potassium channel (human, UniProt Q12809) (assay: primary screen, population patch clamp on CHO cells stably expressing hERG).
Chain of human ether-à-go-go-related gene (hERG) potassium channel (Q12809 whole entry, looked up): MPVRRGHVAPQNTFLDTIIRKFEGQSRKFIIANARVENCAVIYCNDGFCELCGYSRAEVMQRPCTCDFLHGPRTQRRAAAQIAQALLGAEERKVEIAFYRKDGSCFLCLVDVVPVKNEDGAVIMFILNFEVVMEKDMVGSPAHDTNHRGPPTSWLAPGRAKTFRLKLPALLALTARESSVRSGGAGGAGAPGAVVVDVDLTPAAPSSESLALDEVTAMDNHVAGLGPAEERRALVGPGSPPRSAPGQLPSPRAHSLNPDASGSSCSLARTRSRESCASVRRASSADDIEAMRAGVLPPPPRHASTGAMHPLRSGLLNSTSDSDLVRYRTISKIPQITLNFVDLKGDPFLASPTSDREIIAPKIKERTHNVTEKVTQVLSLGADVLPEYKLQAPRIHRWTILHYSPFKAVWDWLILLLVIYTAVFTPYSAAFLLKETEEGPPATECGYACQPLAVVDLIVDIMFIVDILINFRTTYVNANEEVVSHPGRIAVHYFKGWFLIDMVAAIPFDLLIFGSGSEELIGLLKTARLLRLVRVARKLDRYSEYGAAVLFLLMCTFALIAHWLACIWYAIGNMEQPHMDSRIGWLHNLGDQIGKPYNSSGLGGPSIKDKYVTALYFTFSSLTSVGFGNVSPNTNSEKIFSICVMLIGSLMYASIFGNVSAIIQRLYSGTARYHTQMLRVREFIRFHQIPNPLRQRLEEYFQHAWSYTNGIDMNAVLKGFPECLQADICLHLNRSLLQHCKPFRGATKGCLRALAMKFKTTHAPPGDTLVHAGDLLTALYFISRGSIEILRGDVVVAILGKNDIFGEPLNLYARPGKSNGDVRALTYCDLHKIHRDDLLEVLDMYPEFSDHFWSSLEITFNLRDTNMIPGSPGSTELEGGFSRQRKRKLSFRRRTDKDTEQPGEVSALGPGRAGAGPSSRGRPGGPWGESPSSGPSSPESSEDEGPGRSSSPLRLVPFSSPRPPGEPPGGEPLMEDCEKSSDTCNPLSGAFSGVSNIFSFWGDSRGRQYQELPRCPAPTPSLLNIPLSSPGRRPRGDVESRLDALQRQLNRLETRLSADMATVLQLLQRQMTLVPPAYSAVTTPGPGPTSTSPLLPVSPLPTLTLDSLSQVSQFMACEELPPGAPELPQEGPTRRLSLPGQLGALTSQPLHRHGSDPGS

| SMILES | hERG current change (%, negative = inhibition) at 1uM [%] |
| --- | --- |
| CCOC(=O)c1nn(-c2cccc(Cl)c2)c(C)c1C(C)=O | 8.56 |
| COCCSc1ccccc1C(=O)Nc1cccnc1 | 14.2 |
| Cc1ccc(C(=O)Cn2c(N3CCOCC3)nc3c2c(=O)n(C)c(=O)n3C)cc1 | 5.32 |
| CCCCNC(=O)C1CC(=O)N(CCc2ccc(C)cc2)C1 (stereo not drawn) | 13.9 |
| CCCOc1ccc(Cc2nn[nH]n2)cc1 | 14.6 |
| COc1cccc(NC(=O)Cn2c3ccc(F)cc3c3nc4n(c(=O)c32)CCS4)c1 | 10.6 |
| CCOC1=C/C(=C/c2c(N)n3oc(C)cc3nc2=O)C=CC1=O | 7.78 |
| CCOC(=O)c1cnc(-n2cc(C)cn2)nc1NCc1ccc2c(c1)OCO2 | 9.44 |
| CCCC(=O)n1nc(-c2ccc(Cl)cc2)nc1SC | 21.8 |
| COc1cc2c(cc1OC)CN(CC(=O)NC(=O)NC(C)(C)C)CC2 | 8.35 |
| Cc1ccc(CS(=O)(=O)c2ccc(C(=O)N3CCCCC3)cc2[N+](=O)[O-])cc1 | 1.81 |
| Cc1cc(C)nc(SCC(=O)c2ccc3c(c2)OCCO3)n1 | 1.89 |
| CCN(CC)S(=O)(=O)c1cccc(C(=O)N2CCCc3ccccc32)c1 | 5.5 |
| N#CCCN1CCN(S(=O)(=O)c2ccc3c(c2)CCC3)CC1 | 13.8 |
| CS(=O)(=O)N(CC(=O)Nc1ccccc1-c1ccccc1)c1cccc(F)c1 | 13.2 |
| C/C(O)=c1/c(=O)nc2cccc3c2=c1c1ccccc1c3=O | 0.0122 |
| Cc1cc(-c2nc(-c3ccc(C(C)(C)C)cc3)no2)no1 | 13.6 |
| COC(=O)c1cc(NC2c3ccccc3C(=O)N2c2cccnc2)cc(C(=O)OC)c1 (stereo not drawn) | -7.48 |
| CCCn1c2ccccc2c2cnn(CC(=O)NCCCN3CCCCC3CC)c(=O)c21 (stereo not drawn) | -5.89 |

| SMILES | hERG current change (%, negative = inhibition) at 1uM [%] |
| --- | --- |
| Cc1ncc([N+](=O)[O-])n1CCN1C(=O)c2ccccc2C1=O | 5.97 |
| CC(OC(=O)C1=COCCO1)C(=O)NC(C)c1ccc(Cl)cc1Cl (stereo not drawn) | 8.62 |
| COc1ccccc1N1CCN(C(=O)C(=O)c2c(C)[nH]c3ccccc23)CC1 | 13.5 |
| O=C(NCc1ccc(F)cc1)c1ccc(S(=O)(=O)N2CCCCC2)cc1 | 24.3 |
| CC(C)Oc1ccc(CNC(=O)C2CCN(C(=O)N3CCOc4ccccc43)CC2)cc1 | 6.25 |
| COc1cc(N=Nc2ccc3ccccc3c2)ccc1O | 12.7 |
| COc1ccc(NS(=O)(=O)c2ccc(NC(=O)c3ccc(N(C)S(C)(=O)=O)cc3)cc2)cc1 | 7.73 |
| CC(C)CNC(=O)CN(c1ccccc1)S(=O)(=O)c1ccccc1[N+](=O)[O-] | 8.13 |
| O=[n+]1c2c(n([O-])c3cc(Cl)ccc31)CCCC2 | -1.7 |
| COc1cc(Br)c(C(=O)c2nccc3cc(OC)c(OC)cc23)cc1OC | 10.6 |
| CN(C)C(=O)c1ccc(-c2cc(C(F)(F)F)n(C)n2)s1 | 9.77 |
| CCn1c(=O)cc(OCC(=O)N2CCCC2)c2ccccc21 | 10.9 |
| O=C(COC(=O)c1ccc2ccccc2c1)NCCCc1ccccc1 | 14.9 |
| CCN1CCN(c2nnc(-c3ccc(F)cc3)c3ccccc23)CC1 | -16.1 |
| O=C(CCn1nnc2ccccc21)Nc1nnc(-c2ccccc2F)s1 | 4.64 |
| O=C(CSc1nnc(-c2ccc(F)cc2)c2ccccc12)Nc1ccccc1 | 15.2 |
| CC(=O)c1cccc(NC(=O)COc2ccc(S(=O)(=O)N3CCCCC3)cc2)c1 | 4.37 |
| Cc1ccc(/C=N/N=C/c2ccc(C)s2)s1 | 9.77 |
| COc1ccc(-n2nc(C(=O)O)nc2-c2ccccc2)cc1 | 11.9 |

| SMILES | hERG current change (%, negative = inhibition) at 1uM [%] |
| --- | --- |
| O=C(CSc1nnnn1-c1cccc(F)c1)NC1CCCCC1 | 9.66 |
| COCCC(=O)N1CCC(Oc2ccc(C(=O)NC3Cc4ccccc4C3)cc2)CC1 | 11.5 |
| O=S(=O)(NCC(Nc1ccc(Cl)cc1)c1ccccc1)c1ccccc1 (stereo not drawn) | 0.687 |
| O=C(O)CCSCC(=O)Nc1c(C(=O)C2CC2)oc2ccccc12 | 14.2 |
| Cc1ccc(NC(=O)c2ccc(NC3=NC4CS(=O)(=O)CC4S3)cc2)cc1 (stereo not drawn) | 11.1 |
| O=C(CN(C(=O)CNS(=O)(=O)c1ccccc1)C1CCCC1)NCc1ccco1 | 4.65 |
| CCN(CC)c1ccc(NC(=O)c2cccc(F)c2)c(C)c1 | 0.278 |
| COc1cccc(OCCn2cc(C(=O)c3ccco3)c3ccccc32)c1 | 15.4 |
| O=c1[nH]c2ccc(S(=O)(=O)Nc3ccc(Br)cc3)cc2[nH]1 | 13.3 |
| O=C(Nc1ccc2nsnc2c1)NC1CCCCC1 | 3.53 |
| CC(=O)c1c(C(C)=O)c(C)n(C2CCCCC2)c1C | 11 |
| CC(C)C(C)NC(=O)COC(=O)/C=C/c1ccc(S(=O)(=O)N2CCc3ccccc32)cc1 (stereo not drawn) | 15.7 |
| Cc1ccc(N=Nc2ccc(O)c3ncccc23)cc1C | 3.59 |
| CCOCCCn1c(SCC(=O)/C(C#N)=C(\C)N)nc2ccccc2c1=O | 16.9 |
| Cc1occc1C(=O)NCCCCNC(=O)c1ccoc1C | -9.6 |
| COc1ccc2cc(CN(Cc3ccco3)C(c3nnnn3C3CCCCC3)C(C)C)c(=O)[nH]c2c1 (stereo not drawn) | 5.63 |
| Cc1cccc(C)c1Nc1nnc(SC/C(O)=C(\C#N)c2nc3ccccc3[nH]2)s1 | 21.8 |
| Cc1cc(S(=O)(=O)N2CCCCC2CCNC(=O)C(=O)NCC2CCCO2)ccc1F (stereo not drawn) | 6.34 |
| O=C(CCCn1c(SCC(=O)NC2CCCCC2)nc2ccccc2c1=O)NCC1CCCO1 (stereo not drawn) | -27.5 |
